# Results are given in words; binding and its absence hold for the method and conditions named. Binding seen in cells or lysates may run through a third protein. Some binding calls cover weakened binding; strength is not graded here. Tags and fused reporters may be left off the sequences shown.
# Protein sequences, listed by entry. Tags and fused reporters are not part of them. Lines headed by an entry give the natural chain unless they say otherwise; changes in a name come on top. Chains listed by the source or under a name are the forms on record and can include a tag or linker.
# HaloTag-ARNT isoform 6 (P27540, form named): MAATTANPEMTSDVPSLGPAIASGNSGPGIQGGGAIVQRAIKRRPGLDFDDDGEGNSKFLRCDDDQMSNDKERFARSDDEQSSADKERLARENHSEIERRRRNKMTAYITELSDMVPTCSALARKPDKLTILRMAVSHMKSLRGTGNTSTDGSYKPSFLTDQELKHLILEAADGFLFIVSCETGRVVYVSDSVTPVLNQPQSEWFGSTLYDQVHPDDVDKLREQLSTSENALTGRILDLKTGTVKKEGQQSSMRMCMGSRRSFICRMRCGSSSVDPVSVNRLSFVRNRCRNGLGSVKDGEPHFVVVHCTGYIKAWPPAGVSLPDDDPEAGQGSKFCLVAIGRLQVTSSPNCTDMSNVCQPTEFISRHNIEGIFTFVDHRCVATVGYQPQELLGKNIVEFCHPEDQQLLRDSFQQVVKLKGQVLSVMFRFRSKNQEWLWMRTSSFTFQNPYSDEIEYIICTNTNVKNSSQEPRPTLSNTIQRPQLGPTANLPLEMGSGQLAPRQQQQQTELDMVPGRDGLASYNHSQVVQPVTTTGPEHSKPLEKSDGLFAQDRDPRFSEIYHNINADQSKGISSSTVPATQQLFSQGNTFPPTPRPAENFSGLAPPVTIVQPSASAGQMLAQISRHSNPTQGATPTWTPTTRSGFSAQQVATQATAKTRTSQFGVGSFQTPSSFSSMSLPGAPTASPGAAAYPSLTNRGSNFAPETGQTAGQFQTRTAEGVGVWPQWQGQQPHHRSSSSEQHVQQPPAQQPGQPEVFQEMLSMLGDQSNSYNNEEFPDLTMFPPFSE
# Biological target: HaloTag-ARNT isoform 6 (human) (UniProt P27540)
# Experiment: pull-down; HaloTag Mammalian Pull-Down (Promega): HaloTag-ARNT isoform 6 covalently linked to the resin, HA-tagged NPAS3 construct as prey; lysates of transfected HEK 293T cells; western blot of input, unbound and pull-down samples
row,Binder,binding
1,"HA-NPAS3 isoform 1 (933 aa) (protein, UniProt Q8IXF0-1 1-933) MAPTKPSFQQDPSRRERITAQHPLPNQSECRKIYRYDGIYCESTYQNLQALRKEKSRDAARSRRGKENFEFYELAKLLPLPAAITSQLDKASIIRLTISYLKMRDFANQGDPPWNLRMEGPPPNTSVKVIGAQRRRSPSALAIEVFEAHLGSHILQSLDGFVFALNQEGKFLYISETVSIYLGLSQVELTGSSVFDYVHPGDHVEMAEQLGMKLPPGRGLLSQGTAEDGASSASSSSQSETPEPVESTSPSLLTTDNTLERSFFIRMKSTLTKRGVHIKSSGYKVIHITGRLRLRVSLSHGRTVPSQIMGLVVVAHALPPPTINEVRIDCHMFVTRVNMDLNIIYCENRISDYMDLTPVDIVGKRCYHFIHAEDVEGIRHSHLDLLNKGQCVTKYYRWMQKNGGYIWIQSSATIAINAKNANEKNIIWVNYLLSNPEYKDTPMDIAQLPHLPEKTSESSETSDSESDSKDTSGITEDNENSKSDEKGNQSENSEDPEPDRKKSGNACDNDMNCNDDGHSSSNPDSRDSDDSFEHSDFENPKAGEDGFGALGAMQIKVERYVESESDLRLQNCESLTSDSAKDSDSAGEAGAQASSKHQKRKKRRKRQKGGSASRRRLSSASSPGGLDAGLVEPPRLLSSPNSASVLKIKTEISEPINFDNDSSIWNYPPNREISRNESPYSMTKPPSSEHFPSPQGGGGGGGGGGGLHVAIPDSVLTPPGADGAAARKTQFGASATAALAPVASDPLSPPLSASPRDKHPGNGGGGGGGGGGAGGGGPSASNSLLYTGDLEALQRLQAGNVVLPLVHRVTGTLAATSTAAQRVYTTGTIRYAPAEVTLAMQSNLLPNAHAVNFVDVNSPGFGLDPKTPMEMLYHHVHRLNMSGPFGGAVSAASLTQMPAGNVFTTAEGLFSTLPFPVYSNGIHAAQTLERKED",binds
2,"HA-NPAS3 PAS domains (residues 116–450) (domain or fragment, UniProt Q8IXF0-1 116-450) LRMEGPPPNTSVKVIGAQRRRSPSALAIEVFEAHLGSHILQSLDGFVFALNQEGKFLYISETVSIYLGLSQVELTGSSVFDYVHPGDHVEMAEQLGMKLPPGRGLLSQGTAEDGASSASSSSQSETPEPVESTSPSLLTTDNTLERSFFIRMKSTLTKRGVHIKSSGYKVIHITGRLRLRVSLSHGRTVPSQIMGLVVVAHALPPPTINEVRIDCHMFVTRVNMDLNIIYCENRISDYMDLTPVDIVGKRCYHFIHAEDVEGIRHSHLDLLNKGQCVTKYYRWMQKNGGYIWIQSSATIAINAKNANEKNIIWVNYLLSNPEYKDTPMDIAQLPH",no binding

# Second part, the binder after the results:
row,binding,Binder
1,binds,"HA-NPAS3 isoform 1 p.Ala552Pro (protein, UniProt Q8IXF0-1 1-933) MAPTKPSFQQDPSRRERITAQHPLPNQSECRKIYRYDGIYCESTYQNLQALRKEKSRDAARSRRGKENFEFYELAKLLPLPAAITSQLDKASIIRLTISYLKMRDFANQGDPPWNLRMEGPPPNTSVKVIGAQRRRSPSALAIEVFEAHLGSHILQSLDGFVFALNQEGKFLYISETVSIYLGLSQVELTGSSVFDYVHPGDHVEMAEQLGMKLPPGRGLLSQGTAEDGASSASSSSQSETPEPVESTSPSLLTTDNTLERSFFIRMKSTLTKRGVHIKSSGYKVIHITGRLRLRVSLSHGRTVPSQIMGLVVVAHALPPPTINEVRIDCHMFVTRVNMDLNIIYCENRISDYMDLTPVDIVGKRCYHFIHAEDVEGIRHSHLDLLNKGQCVTKYYRWMQKNGGYIWIQSSATIAINAKNANEKNIIWVNYLLSNPEYKDTPMDIAQLPHLPEKTSESSETSDSESDSKDTSGITEDNENSKSDEKGNQSENSEDPEPDRKKSGNACDNDMNCNDDGHSSSNPDSRDSDDSFEHSDFENPKAGEDGFGALGPMQIKVERYVESESDLRLQNCESLTSDSAKDSDSAGEAGAQASSKHQKRKKRRKRQKGGSASRRRLSSASSPGGLDAGLVEPPRLLSSPNSASVLKIKTEISEPINFDNDSSIWNYPPNREISRNESPYSMTKPPSSEHFPSPQGGGGGGGGGGGLHVAIPDSVLTPPGADGAAARKTQFGASATAALAPVASDPLSPPLSASPRDKHPGNGGGGGGGGGGAGGGGPSASNSLLYTGDLEALQRLQAGNVVLPLVHRVTGTLAATSTAAQRVYTTGTIRYAPAEVTLAMQSNLLPNAHAVNFVDVNSPGFGLDPKTPMEMLYHHVHRLNMSGPFGGAVSAASLTQMPAGNVFTTAEGLFSTLPFPVYSNGIHAAQTLERKED"
2,binds,"HA-NPAS3 isoform 1 p.Val304Ile (protein, UniProt Q8IXF0-1 1-933) MAPTKPSFQQDPSRRERITAQHPLPNQSECRKIYRYDGIYCESTYQNLQALRKEKSRDAARSRRGKENFEFYELAKLLPLPAAITSQLDKASIIRLTISYLKMRDFANQGDPPWNLRMEGPPPNTSVKVIGAQRRRSPSALAIEVFEAHLGSHILQSLDGFVFALNQEGKFLYISETVSIYLGLSQVELTGSSVFDYVHPGDHVEMAEQLGMKLPPGRGLLSQGTAEDGASSASSSSQSETPEPVESTSPSLLTTDNTLERSFFIRMKSTLTKRGVHIKSSGYKVIHITGRLRLRVSLSHGRTIPSQIMGLVVVAHALPPPTINEVRIDCHMFVTRVNMDLNIIYCENRISDYMDLTPVDIVGKRCYHFIHAEDVEGIRHSHLDLLNKGQCVTKYYRWMQKNGGYIWIQSSATIAINAKNANEKNIIWVNYLLSNPEYKDTPMDIAQLPHLPEKTSESSETSDSESDSKDTSGITEDNENSKSDEKGNQSENSEDPEPDRKKSGNACDNDMNCNDDGHSSSNPDSRDSDDSFEHSDFENPKAGEDGFGALGAMQIKVERYVESESDLRLQNCESLTSDSAKDSDSAGEAGAQASSKHQKRKKRRKRQKGGSASRRRLSSASSPGGLDAGLVEPPRLLSSPNSASVLKIKTEISEPINFDNDSSIWNYPPNREISRNESPYSMTKPPSSEHFPSPQGGGGGGGGGGGLHVAIPDSVLTPPGADGAAARKTQFGASATAALAPVASDPLSPPLSASPRDKHPGNGGGGGGGGGGAGGGGPSASNSLLYTGDLEALQRLQAGNVVLPLVHRVTGTLAATSTAAQRVYTTGTIRYAPAEVTLAMQSNLLPNAHAVNFVDVNSPGFGLDPKTPMEMLYHHVHRLNMSGPFGGAVSAASLTQMPAGNVFTTAEGLFSTLPFPVYSNGIHAAQTLERKED"
